In PMC5038265 (Antimicrobial Agents and Chemotherapy, 2016):
Where two headings read alike, the source gives them in different places.

Experiments:
M. tuberculosis Erdman [1] = type: in vivo, BALB/c mouse; conditions: 3 weeks with weekend drug holidays
M. tuberculosis Erdman [2] = assay: Murine GKO (C57BL/6-Ifngtm1ts) model of acute TB; type: in vivo, C57BL/6 GKO IFN-γ mice
M. tuberculosis Erdman [3] = conditions: oral, 5 days a week for 4 weeks; Fig. 5C

CCOc1cccc2c1B(O)OC2CN (centres unmarked) [Compound 1]
reduction in CFU from mouse lungs (M. tuberculosis Erdman [1]; 100 mg/kg twice a day (BID)): 0.4 log10

CCOc1cccc2c1B(O)O[C@@H]2CN [Compound 2]
reduction in lung CFU compared to control mice (M. tuberculosis Erdman [2]; 200 mg/kg BID for 9 days, oral): 2 log10
reduction in spleen CFU compared to control mice (M. tuberculosis Erdman [2]; 200 mg/kg BID for 9 days, oral): 1.5 log10

CCOc1ccc(Br)c2c1B(O)OC2CN (centres unmarked) [Compound 11]
efficacy in GKO mouse model of acute TB (M. tuberculosis Erdman [2]; oral, daily, Fig. 5A and B): efficacy similar to that of isoniazid

CCOc1ccc(Br)c2c1B(O)O[C@@H]2CN [Compound 14]
efficacy in BALB/c mouse model of chronic TB infection (M. tuberculosis Erdman [3]): the most potent

NNC(=O)c1ccncc1 [Isoniazid, isoniazid, reference compound]
reduction in CFU from lungs (M. tuberculosis Erdman [2]; 25 mg/kg): 2.8 log10
reduction in CFU from spleen (M. tuberculosis Erdman [2]; 25 mg/kg): 3.4 log10

O=[N+]([O-])c1cn2c(n1)OC[C@@H](OCc1ccc(OC(F)(F)F)cc1)C2 [PA-824, pretomanid, reference compound]
reduction in CFU from mouse lungs (M. tuberculosis Erdman [1]; 100 mg/kg once a day (QD)): 1.9 log10
